Measured values as given in PubChem BioAssay AID651820 (National Center for Advancing Translational Sciences (NCATS), 2012).
The whole screen tested about 340,000 compounds, of which about 12,000 (3.5%) were called active. The inconclusive results got no clear call from the source; some entries with a clear call stand among them for comparison. Calls follow the shape of the dose curve; as a rule, active = well fitted inhibition curve with a large enough effect; inconclusive = small, poorly fitted or top-dose-only effect, or another doubt; inactive = no such curve, though single readings can be large or run the other way. Potencies of inconclusive entries are left out as doubtful fits.

Test: qHTS Assay for Inhibitors of Hepatitis C Virus (HCV)
Conditions: Huh7.5.1 HCVcc-Cre (HCVcc is cell-culture hepatitis C virus) infection, luciferase reporter, 44 h; activity change, negative = inhibition: at 41.8 µM (top of the series) unless noted
In short: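 Seed cells (1,000/well) for 4 h; treat with compound and infect with HCVcc-Cre, moi about 0.5. Incubate 44 h, then detect luciferase activity.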
% is scaled to controls: 0 for no effect and ±100 for the full control effect; potency is read from the fitted curve at half-maximal effect; tags tell the direction and shape of the fitted curve.

Question: With `Fc1cccc(NC(=S)NCc2cccnc2)c1` as the compound, how does the Potency read?
Answer: inconclusive [inhibitor, partial curve, poor fit]

Question: Which Potency does the source give for `O=C(COc1ccc(Cl)cc1)Nc1cccc(S(=O)(=O)NCc2ccco2)c1` here?
Answer: active: 31.6 µM

Question: Which Potency does the source give for `O=C1COc2ccc(C(=O)CSc3ccc(Br)cc3)cc2N1` here?
Answer: inconclusive [inhibitor, single point]

Question: For `Cc1ccc2c(c1)c1c(n2CC(O)CN2CCC(C)CC2)CCCC1` (centres undefined), which Potency is on record?
Answer: inconclusive [inhibitor, single point]

Question: With `CC(C)(C)n1[nH]c2c3c(ccc2c1=O)C(=O)c1ccccc1C3=O` as the compound, how does the Potency read?
Answer: inconclusive [inhibitor, single point]

Question: Which Potency does the source give for `Nc1nonc1-n1nnc(C(=O)N/N=C/c2ccc(OCc3ccccc3F)cc2)c1CNc1ccccc1` here?
Answer: inactive

Question: Which Potency does the source give for `COc1ccc(C)cc1N(C(=O)c1ccccc1F)c1nc2ccccc2s1` here?
Answer: inconclusive [inhibitor, partial curve]

Question: With `COc1ccc(OCC(O)CNCCOc2ccccc2OC)c(C(C)(C)C)c1` (centres undefined) as the compound, how does the Potency read?
Answer: active: 17.8 µM

Question: Which Potency does the source give for `CCOC(=O)C(CC)Sc1nnc2c3cc(C)ccc3n(C)c2n1` (centres undefined) here?
Answer: inconclusive [inhibitor, single point]

Question: Which Potency does the source give for `COc1ccc(S(=O)(=O)N2CCOC2CNC(=O)C(=O)NCCc2ccccc2)cc1OC` (centres undefined) here?
Answer: inactive

Question: Which Potency does the source give for `COCCN(CCOC)C(=O)c1ccc(CSc2nc3ccccc3s2)cc1` here?
Answer: inconclusive [inhibitor, single point]

Question: Which Potency does the source give for `COC(=O)c1ccccc1S(=O)(=O)N1CCC(C(=O)NC2=NCCS2)CC1` here?
Answer: inactive

Question: Which Potency does the source give for `S=C(NCc1ccccn1)NN=Cc1ccccn1` here?
Answer: inconclusive [inhibitor, full curve]

Question: Which Potency does the source give for `CC(=O)c1ccc(NC(=O)CSCCO)cc1` here?
Answer: inconclusive [inhibitor, single point]

Question: With `Cc1ccccc1Nc1nc(N)nc(CSCC(=O)Nc2cccc(Br)c2)n1` as the compound, how does the Potency read?
Answer: inactive

Question: Which Potency does the source give for `COc1ccc(Cl)cc1NC(=O)C1Cc2cc(S(=O)(=O)N3CCCC3)ccc2N1C(C)=O` (centres undefined) here?
Answer: inconclusive [inhibitor, full curve, poor fit]

Question: For `Cc1ccn2c(=O)c(C(=O)NCCC3=CCCCC3)c(O)nc2c1`, which Potency is on record?
Answer: inconclusive [inhibitor, single point]

Question: With `O=C(O)C(c1ccccc1)C(O)C1CCCC1` (centres undefined) as the compound, how does the Potency read?
Answer: inactive

Question: For `N#Cc1c(NC(=O)c2cnccn2)sc2c1CCCC2`, which Potency is on record?
Answer: inconclusive [inhibitor, single point]

Question: For `NC(=O)c1ccc(N2CCN(S(=O)(=O)c3ccccc3)CC2)c([N+](=O)[O-])c1`, which Potency is on record?
Answer: active: 2.82 µM

Question: Which Potency does the source give for `CCCCCn1c(=N)c(S(=O)(=O)c2ccc(Cl)cc2)cc2c(=O)n3cccc(C)c3nc21` here?
Answer: inconclusive [inhibitor, single point]

Question: With `CN(C)CCCNc1nc(N)c([N+](=O)[O-])c(NCCO)n1` as the compound, how does the Potency read?
Answer: inactive

Question: For `CCn1c(SCC(=O)Nc2nc3ccc(C)cc3s2)nc2c(c1=O)SC(C)C2` (centres undefined), which Potency is on record?
Answer: active: 7.94 µM

Question: With `O=C(NNS(=O)(=O)c1ccccc1[N+](=O)[O-])c1ccc(F)cc1` as the compound, how does the Potency read?
Answer: inconclusive [inhibitor, single point]

Question: For `CCCc1nc([N+](=O)[O-])c(S(=O)(=O)c2ccccc2)n1CC(C)C`, which Potency is on record?
Answer: inconclusive [inhibitor, single point]

Question: Which Potency does the source give for `CCOc1ccc(C(=O)NNC(=O)C2CC(=O)N(c3ccc(C)cc3)C2)cc1` (centres undefined) here?
Answer: inactive

Question: For `COCC1CCCN(C(=O)c2ccc3oc(CCCc4ccccc4)nc3c2)C1` (centres undefined), which Potency is on record?
Answer: inconclusive [inhibitor, single point]

Question: With `Cc1ccc(O)c(C(=O)c2cnc3onc(-c4ccc(F)cc4)c3c2)c1` as the compound, how does the Potency read?
Answer: inconclusive [inhibitor, single point]

Question: With `O=C(Nc1ccccc1NC(=O)c1ccco1)c1ccco1` as the compound, how does the Potency read?
Answer: inactive

Question: Which Potency does the source give for `CCCC(=O)NC(Nc1c(C)n(C)n(-c2ccccc2)c1=O)C(Cl)(Cl)Cl` (centres undefined) here?
Answer: inactive

Question: Which Potency does the source give for `CCC(=O)N1CCN(c2nc(-c3ccc(Cl)cc3)cs2)CC1` here?
Answer: inconclusive [inhibitor, single point]

Question: For `CCCCN(C(=O)CSCC(=O)Nc1ccc(C)cc1)c1c(N)n(Cc2ccccc2)c(=O)[nH]c1=O`, which Potency is on record?
Answer: inconclusive [inhibitor, partial curve]

Question: Which Potency does the source give for `Cn1cc(C(=O)N/N=C/C(Br)=C\c2ccccc2)ccc1=O` here?
Answer: inconclusive [inhibitor, single point]

Question: With `COc1cccc(C(=O)/C=C/Nc2cc(C)ccc2O)c1` as the compound, how does the Potency read?
Answer: active: 2.24 µM

Question: For `COc1ccc(C(=O)NCC(C)(C)SCc2c(C)cc(C)cc2C)cc1`, which Potency is on record?
Answer: inconclusive [inhibitor, partial curve]

Question: Which Potency does the source give for `Cc1ccc(OCCOC(=O)c2cc(S(=O)(=O)N3CCCCC3)ccc2N2CCOCC2)cc1` here?
Answer: inconclusive [inhibitor, partial curve]

Question: With `COc1ccc(C2(CNS(=O)(=O)c3ccc(C)cc3)CCOCC2)cc1` as the compound, how does the Potency read?
Answer: inactive

Question: For `Cc1cc(OCC(=O)Nc2ccc(CCO)cc2)c2c(C)c(C)c(=O)oc2c1`, which Potency is on record?
Answer: inconclusive [inhibitor, single point]

Question: Which Potency does the source give for `Cc1ccc(C(=O)OCn2nnc3ccccc3c2=O)cc1[N+](=O)[O-]` here?
Answer: inactive

Question: With `O=C(N/N=C/c1ccc[nH]1)c1cccc([N+](=O)[O-])c1` as the compound, how does the Potency read?
Answer: active: 3.55 µM

Question: With `Cc1cccc(CCNC(=O)c2cc(S(=O)(=O)N3CCCC3)cn2C)c1` as the compound, how does the Potency read?
Answer: active: 8.91 µM

Question: For `Cc1cc2ccccc2n2c(SCC(=O)Nc3ccc(S(=O)(=O)N4CCC(C)CC4)cc3)nnc12`, which Potency is on record?
Answer: inconclusive [inhibitor, single point]

Question: For `COc1ccc2oc(C(=O)Nc3ccccc3N3CCOCC3)c(C)c2c1`, which Potency is on record?
Answer: inconclusive [inhibitor, full curve]

Question: Which Potency does the source give for `CCn1c(CNc2ccc(F)cc2)nnc1SCC#N` here?
Answer: inactive

Question: For `Nc1cc(N2CCNCC2)c([N+](=O)[O-])cc1Cl`, which Potency is on record?
Answer: inactive

Question: For `CC(=O)Nc1sc(C)c(C)c1C(=O)OCC(=O)N(CC(C)C)c1c(N)n(Cc2ccccc2)c(=O)[nH]c1=O`, which Potency is on record?
Answer: active: 5.01 µM

Question: Which Potency does the source give for `N#Cc1cccc(NC(=O)CSc2ccc3c4c(cccc24)C(=O)c2ccccc2-3)c1` here?
Answer: active: 8.91 µM

Question: For `CCN(CC(=O)NCc1ccc(Cl)cc1)C(=O)COc1ccc(C)cc1C`, which Potency is on record?
Answer: inconclusive [inhibitor, partial curve]

Question: For `Nc1nc2ccc(OC(F)(F)F)cc2s1`, which activity change, negative = inhibition is on record?
Answer: inactive: -13.7% [at 8.37 µM]

Question: Which Potency does the source give for `CCN(CC)CCN(C(=O)c1cc2ccccc2cc1OC)c1nc2ccc(OC)cc2s1` here?
Answer: active: 11.2 µM

Question: For `CC(=O)c1cc2c(cc1NC(=O)CCc1c(C)nc3ncnn3c1C)OCO2`, which Potency is on record?
Answer: inconclusive [inhibitor, single point]

Question: For `COc1cc(/C=N/Nc2snc(SC)c2C#N)cc(OC)c1OC`, which Potency is on record?
Answer: inconclusive [inhibitor, full curve]

Question: For `CCOC(=O)C(CC)n1nc(C)n2c(cc3occc32)c1=O` (centres undefined), which Potency is on record?
Answer: inactive

Question: For `CCOc1ccc2nc3ccc4[nH]onc4c3c2c1`, which Potency is on record?
Answer: active: 2.51 µM

Question: For `COc1ccc(C2C(C#N)=C(N)OC3=C2C(=O)CC(C)(C)C3)cc1Cn1cc([N+](=O)[O-])cn1` (centres undefined), which Potency is on record?
Answer: inconclusive [inhibitor, single point]

Question: With `Cc1ccc2c(C(=O)CN3CCC4(CC3)OCCO4)c(C)[nH]c2c1` as the compound, how does the Potency read?
Answer: inconclusive [inhibitor, single point]

Question: Which Potency does the source give for `O=C(OCC(=O)N1CCCC1)c1ccc(Cl)nc1` here?
Answer: inactive

Question: With `CC(=O)N(C)c1ccc(OCC(O)Cn2c3ccc(Cl)cc3c3cc(Cl)ccc32)cc1` (centres undefined) as the compound, how does the Potency read?
Answer: active: 0.891 µM

Question: For `Cc1cccc(N2CCN(C(=O)c3ccc(CS(=O)Cc4ccc(Cl)cc4)o3)CC2)c1C` (centres undefined), which Potency is on record?
Answer: inconclusive [inhibitor, single point]

Question: For `Cc1cc(=O)oc2cc(OCC(=O)NC3CCN(Cc4ccccc4)CC3)ccc12`, which Potency is on record?
Answer: inconclusive [inhibitor, single point]

Question: Which Potency does the source give for `COc1ccc(C/C(N)=N/OC(=O)Cc2ccc(OC)c(OC)c2)cc1` here?
Answer: inactive

Question: Which Potency does the source give for `Cc1cc(C(=O)OCC(=O)N(CC(C)C)c2c(N)n(Cc3ccccc3)c(=O)[nH]c2=O)c(C)o1` here?
Answer: inactive

Question: For `Cc1ccc(-c2cccc(C(=O)NCc3ccccc3)n2)c2ccccc12`, which Potency is on record?
Answer: inconclusive [inhibitor, partial curve]

Question: For `COC(=O)CSc1nnc(C)c(=O)[nH]1`, which Potency is on record?
Answer: inactive

Question: For `CCOCCCNC(=O)C1CCN(Cc2cccc(OCc3ccccc3)c2)CC1`, which Potency is on record?
Answer: inconclusive [inhibitor, single point]

Question: With `O=C(/C=C\c1ccccc1)Oc1cccc2cccnc12` as the compound, how does the Potency read?
Answer: inconclusive [inhibitor, single point]

Question: For `Cc1n[nH]c(C)c1CCOc1ccc(C(C)C)cc1`, which Potency is on record?
Answer: inconclusive [inhibitor, single point]

Question: With `O=C(COC(=O)c1ccc(Cl)c(S(=O)(=O)NCc2ccccc2)c1)NC1CC1` as the compound, how does the Potency read?
Answer: inactive

Question: Which Potency does the source give for `COc1cc(NC(=S)NC2CC(C)(C)NC(C)(C)C2)cc(OC)c1` here?
Answer: inconclusive [inhibitor, partial curve]

Question: With `CCOC(=O)c1ccc(NC(=O)NC2CC3CCC(C2)N3C(=S)NC)cc1` (centres undefined) as the compound, how does the Potency read?
Answer: inconclusive [inhibitor, single point]

Question: With `O=C(O)c1cc([N+](=O)[O-])c(NCCC2=CCCCC2)c([N+](=O)[O-])c1` as the compound, how does the Potency read?
Answer: inactive

Question: With `CCN(C(=O)/C=C/c1ccccc1)C1CCCCC1` as the compound, how does the Potency read?
Answer: inactive

Question: Which Potency does the source give for `COc1ccccc1C(=O)NCCC(=O)NCCC12CC3CC(CC(C3)C1)C2` here?
Answer: inconclusive [inhibitor, single point]

Question: With `Cc1cc(NC(=O)/C=C/c2cccc(F)c2)n(-c2nc3ccccc3[nH]2)n1` as the compound, how does the Potency read?
Answer: inconclusive [inhibitor, single point]
